Among the data in article PMC12136788 are binding signal values, retold here.

The chains are these.
B1: chr13:109754583:109754684:-|3pUTR|ENSG00000185950|msi1|total|mutant (ssRNA)
RNA: GGGAGUUCUACAGUCCGACGAUCGAUCUCCCUGAACAUUUUUAAGGUUUUACUUUUCUGAAAUUAUACAUCACAGCAGUGCACCGGCCAUAUAAUGUCCGCUGGAAGGUCAAUUUCAGUGUAUGAUAUACUUUAUUAAGAUGUCAACAGAGGAUUGAGCAUCA
B2: chr15:38470281:38470388:+|CDS|ENSG00000171262|unk|FALSE|unique (ssRNA)
RNA: GGGAGUUCUACAGUCCGACGAUCCUUCAAGCUUCACAGAUAUUACAGAACAAGAAACAUAAAAAUUCUCAAUUAGAUAAAAAUAGUGAAGUUUAUCAGGAAGUUCAAGCUAUGUUUGAUACACUUGGUAUACCCAAGUCAACACAACAGAGGAUUGAGCAUCA
B3: chr4:87458373:87458474:+|3pUTR|ENSG00000170502|unk|total|mutant (ssRNA)
RNA: GGGAGUUCUACAGUCCGACGAUCUCCCUCCCGCUCCCCAUCUUCUGAGGCCUGAAGGAUGUUCCUGCCACAUCAAACUCCUUCCGGCAGAGUACCGCCACUGGAUGUACCGUUUAAUGUUUCAUCUGAUUUUUCUUUAAAUUACAACAGAGGAUUGAGCAUCA
B4: chr5:38883864:38883977:+|CDS|ENSG00000145623|unk|total|mutant (ssRNA)
RNA: GGGAGUUCUACAGUCCGACGAUCGUUUUCCCUAAAGAUAAGCUGGUGGAAGAAGGCACCAAUGUUACCAUUUGUUACGUUUCCCGGAACAUUCAAAAUAAUGUAUCCUGUUAUUUGGAAGGGAAACAGAUUCAUGGAGAACAACAACAGAGGAUUGAGCAUCA
B5: chr11:57661263:57661364:+|CDS|ENSG00000172409|unk|FALSE|unique (ssRNA)
RNA: GGGAGUUCUACAGUCCGACGAUCCCACCUACUGAGUGUUAGCACUGCCGAGGGUACAGAGGAGAACCUGUCCGAGACAAGUGUAGCUGGCUUCAUUGUGGUGACCAGUGUGGACCUGGAGCAUCAGGUGUUUACUGUUCUGUCCAACAGAGGAUUGAGCAUCA
B6: chr19:36514967:36515079:-|CDS|ENSG00000254004|unk|FALSE|unique (ssRNA)
RNA: GGGAGUUCUACAGUCCGACGAUCCAUGAAUGCACUGAAUGUGGUAAAGUGUGCUCUCGAGUCUCAUCUCUUACUCUACACCUUAGAAGUCACACAGGAAAGAAGGCAUAUAAAUGUAAUAAAUGUGGAAAAGCCUUCAGCCAGCAACAGAGGAUUGAGCAUCA
B7: ENSG00000107863:be:win_2201|CDS|ENSG00000107863|bound_else_gene|NA|bound_elsewhere_windowed (ssRNA)
RNA: GGGAGUUCUACAGUCCGACGAUCCUGUCAUCCUAAGGGAAAAACCUCCAUCUGGACGCCAGACACCGCAGCCUUUAAGGCAUCAGUCUUACAUCUUGGCAGUAAAUGACCAGGAGACCGGGUCAGACACUACCUGCUGGCUGCCAACAGAGGAUUGAGCAUCA
B8: chr17:3714672:3714773:-|3pUTR|ENSG00000083457|msi1_unk|FALSE|overlapping (ssRNA)
RNA: GGGAGUUCUACAGUCCGACGAUCUUUGCAUUACUUUUUCCUUCAGGAUGAUCUAGAGCAGCAUGGAGCUGUUGGUAGAAUAUUAGUUUUUAACCAUACAUUGUCCCAAAAGUGUCUGUGCAUUGUGCAAAAAGUAAACUUAGGCAACAGAGGAUUGAGCAUCA
B9: ENSG00000107863:be:win_6551|3pUTR|ENSG00000107863|bound_else_gene|NA|bound_elsewhere_windowed (ssRNA)
RNA: GGGAGUUCUACAGUCCGACGAUCUGGAUGGAACUGGCUUCUUUAUCGAGAAGAAUAUAAUUCUGCAUGAGGACUUAAUGAAUCCAAACCUGUGUCAUGCCUGUGUGCAUACCCAAUUAAACACUGGAAAUAAAAAUUGUUUUGCAACAGAGGAUUGAGCAUCA
B10: chr1:153626309:153626462:-|CDS|ENSG00000189171|unk|total|mutant (ssRNA)
RNA: GGGAGUUCUACAGUCCGACGAUCUCCAUUGAGACCGUGGUCACCACCUUCUUCACCUUUGCAAGGCAGGAGGGCCGGAAGGACCGCCUCAGCGUCAACGAGUUCAAAGAGCUGGUUACCCAGCAGUUGCCCCAUCUGCUCAAGCAACAGAGGAUUGAGCAUCA
B11: chr6:142075650:142076049:-|CDS|ENSG00000135577|control|control|control (ssRNA)
RNA: GGGAGUUCUACAGUCCGACGAUCGUAUCGGUCUUUCAACUAUAAUGAGAUUGAUCCAUCUCUAGGCCACAUGAUUGUCACCUUAGUUGCCCGGGUUCUCAGUUUUGGCAAUUCUUGUGUCAACCCAUUUGCUCUUUACCUACUCAACAGAGGAUUGAGCAUCA
B12: chr17:28327902:28328001:+|3pUTR|ENSG00000109084|msi1_unk|total|mutant (ssRNA)
RNA: GGGAGUUCUACAGUCCGACGAUCUCCCUGUAUCUGAAGUCCCGCAUCUCAAGGCUGAUCUGGAAGUGUGCCCGUAUGCUCCCCCGUGGAUAACUUAAUCUUUUAAUACAGUUCCGUCAUUCCCAUCUUGUUUUCAGAAGAGAACAACAGAGGAUUGAGCAUCA
B13: chr2:130346496:130346597:+|3pUTR|ENSG00000136718|unk|total|mutant (ssRNA)
RNA: GGGAGUUCUACAGUCCGACGAUCACUCAGUCAGGACAUGGACUUGGAACUCAGGAUGGGGCUGUCACCGACAGACCCACCAGCCGGAACUGUCACAGAAUGGCCUGCUGAACUGGGAUGUGGAACUGUGGCGGGUGGAGAGGUCAACAGAGGAUUGAGCAUCA
B14: chr2:219567793:219567894:-|CDS|ENSG00000124006|msi1|FALSE|unique (ssRNA)
RNA: GGGAGUUCUACAGUCCGACGAUCCCUGCCCCGGAAGCUCGACGUCCUGGAAGGAGAGAAUGCUGUGCUGCUAGUGGAAACUCUAGAGGCCGGGGUCGAGGGACGCUGGAGCCGUGAUGGGGAGGAGCUGCCGGUCAUCUGCCACAACAGAGGAUUGAGCAUCA
B15: chr17:41691520:41691533:+|3pUTR|ENSG00000173812|msi1_unk|total|mutant (ssRNA)
RNA: GGGAGUUCUACAGUCCGACGAUCGGAACAAAUCUCAAACUGAUCCAUCAGUCAUGCCGCCCGCUGCCGAGCUUGCAACUUAACCGCAGCAGCUGCCCAAUGCCAUGUGAAGUAACAAACUGGUUUUUGGUUUUUUUUUCCCCUCAACAGAGGAUUGAGCAUCA
B16: chr8:103427116:103427218:+|CDS|ENSG00000164934|unk|total|mutant (ssRNA)
RNA: GGGAGUUCUACAGUCCGACGAUCGUAUACUGGGAUUGAUCAUCACUGGAAAGAAGCUGUUUUUGCCACAUGUGGACAGCAAGCCGACAUUUGGGAUGAACAAAGAACUAAUCCUAUAUGUUCAAUGACCUGGGGAUUUGACAGCAACAGAGGAUUGAGCAUCA
B17: chr11:102396659:102396760:-|3pUTR|ENSG00000152558|msi1_unk|FALSE|overlapping (ssRNA)
RNA: GGGAGUUCUACAGUCCGACGAUCCUUUUUCUCUGUAUGUAAGUAGUAUAAUUUGUUACUUUCAAAUACCCGUACUUUGAAUGUAGGUUUUUUUGUUGUUGUUAUCUAUAAAAAUUGAGGGAAAUGGUUAUGCAAAAAAAUAUUCAACAGAGGAUUGAGCAUCA
B18: ENSG00000198589:be:win_7901|CDS|ENSG00000198589|bound_else_gene|NA|bound_elsewhere_windowed (ssRNA)
RNA: GGGAGUUCUACAGUCCGACGAUCCUCGUUCUGAGUCAUAUAUUGGGGGAAAUUGCUACAUUCUCUCAGGGUCACGUGAUGCAACUCUUUUGCUGUGGUAUUGGAAUGGAAAAUGCAGUGGGAUUGGAGAUAACCCAGGCAGUGCAACAGAGGAUUGAGCAUCA
B19: chr16:30603633:30603734:-|3pUTR|ENSG00000156853|unk|FALSE|unique (ssRNA)
RNA: GGGAGUUCUACAGUCCGACGAUCGUUAAGUACCACAUUCUCCUCUAAACCUUGCCUACGACAUGUUUAAUACUUCAUCUACAUAGCAGCCCUUCAGAUAAUCACAACCACUUUGCCCCCAAGUUUUCAGGUUAAGUAGCAUGACAACAGAGGAUUGAGCAUCA
B20: chr1:155884367:155884468:+|3pUTR|ENSG00000132718|msi1|total|mutant (ssRNA)
RNA: GGGAGUUCUACAGUCCGACGAUCUGGGUCUACUGAGCAGUGGGUGCUGAGGUGACAGGGGAGGAACCAGUUGUUCUGCCGCCCCGGAACUGCCUCAGUGUCUUUGCCAGAAAAAGGCAAAGAGGCGGACAGUGCAGGGCUCCUCAACAGAGGAUUGAGCAUCA
B21: chr3:44446857:44446958:-|CDS|ENSG00000185219|msi1|total|mutant (ssRNA)
RNA: GGGAGUUCUACAGUCCGACGAUCGGGAGACAUACCCUUUCCAGUCACCAGAGGAAACACACCAGAGCAGCACAGGCUGAACGCCGCCCGCCUGCACGGUCUUCCUCUCAGGACACAAAGUUGAGAUUACAGAAGCUAAAACCACAACAGAGGAUUGAGCAUCA
B22: chrX:46853785:46853899:+|CDS|ENSG00000102218|unk|FALSE|unique (ssRNA)
RNA: GGGAGUUCUACAGUCCGACGAUCCAUCAUUGAGUCUUCCUCAAAUAUCAAAUUUGGAUGUUUUCAAUGGUACUAUCCUGAAUUAGCUUUCCAGUUCAAAGAUGCAGGGCUAAGUAUCUUCAACAAUACAUGGAGUAACAUUCACAACAGAGGAUUGAGCAUCA

This is one part of the list.

The target in the assay is MSI1 full-length (mouse, UniProt Q61474 1-362). Briefly: nsRBNS (natural sequence RNA bind-n-seq); RBNS binding buffer (assumed for nsRBNS): 25 mM Tris pH 7.5, 150 mM KCl, 3 mM MgCl2, 0.01% Triton X-100, 500 ug/ml BSA, 20 U/ml SUPERase-In, 4 C; UNK is unkempt and MSI1 is Musashi-1; names of the RNAs are library labels; protein concentration not given here; high values mean tight binding.
Sequence of UniProt Q61474 (Q61474 whole entry): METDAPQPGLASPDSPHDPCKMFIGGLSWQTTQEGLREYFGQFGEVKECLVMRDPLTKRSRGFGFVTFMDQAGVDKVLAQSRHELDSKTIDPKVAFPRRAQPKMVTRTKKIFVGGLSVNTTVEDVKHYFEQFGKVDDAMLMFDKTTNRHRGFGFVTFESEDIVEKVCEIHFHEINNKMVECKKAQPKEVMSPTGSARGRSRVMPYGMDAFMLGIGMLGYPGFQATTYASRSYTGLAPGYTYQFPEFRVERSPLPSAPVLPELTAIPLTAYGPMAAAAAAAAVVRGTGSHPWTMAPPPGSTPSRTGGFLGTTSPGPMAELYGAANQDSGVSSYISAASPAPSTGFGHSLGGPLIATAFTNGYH
The molecule B1 registered a binding signal of 0.59 enrichment R. With B2 the figure was 1.7 enrichment R. As for B3, the figure is 0.716 enrichment R; as for B4, 0.268 enrichment R. As for B5, the figure is 0.429 enrichment R; as for B6, 0.484 enrichment R; as for B7, 0.283 enrichment R.

B8 came in with a binding signal of 2.92 enrichment R.

Consider B9, for which the binding signal came to 0.237 enrichment R.

For the molecule B10, the binding signal was 0.326 enrichment R. With B11 the figure was 0.344 enrichment R; with B12, 0.723 enrichment R; with B13, 0.62 enrichment R. As for B14, the binding signal was 0.382 enrichment R. Turning to B15, the binding signal worked out at 0.422 enrichment R. On to B16, for which the binding signal is 0.362 enrichment R.

With B17, the binding signal was 2.82 enrichment R. Consider B18, for which the binding signal amounted to 0.503 enrichment R.

In turn, B19 had a binding signal of 2.37 enrichment R. In turn, B20 showed a binding signal of 0.357 enrichment R. For B21, the binding signal was 0.417 enrichment R. With B22 the figure was 0.338 enrichment R.
